Experimental data as given in the RNAGym collection of RNA variant scans (doi:10.1093/nar/gkz1192).
Read counts are not given, so values of variants with three or more changes are uncertain.

B1: CPEB3 Ribozyme (parent)
chain: UAACAGGGGGCCACAGCAGAAGCGUUCACGUCGCAGCCCCUGUCAGAUUCUGGUGAAUCUGCGAAUUCUGCUGUAUAUCUC

Variants of: B1
Assay: self-cleavage, relative activity (ratio to wild type); higher = more cleavage; in vitro, sequencing
Outline: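 Libraries of CPEB3 self-cleaving ribozyme mutants came from rounds of error-prone PCR and carried barcodes, which DNA sequencing matched to variants. In vitro transcription used T7 RNA polymerase at 37°C for 5 hours, with a further 15 min in DNase I before EDTA stopped the reaction; the ribozymes cleaved during both steps. The RNA was reverse transcribed with template switching and sequenced on Illumina. Relative activity is the cleaved/total read fraction of a variant divided by that of the unmutated ribozyme, averaged over three batches with at least 5 reads.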

Row | Variant | self-cleavage
1 | A5G A13G A21G U60C U72C | 0
2 | A5G A13G A21G U76A | 0.4
3 | A5G A13G A28G U31C C37G G46U A65G | 0.44
4 | A5G A13G A28G U49C | 0.05
5 | A5G A13G A28U | 0.29
6 | A5G A13G A28U A56G U67C | 0.28
7 | A5G A13G A35G U69C | 0.13
8 | A5G A13G A35U U49C U58C | 0.06
9 | A5G A13G A35U U51A U78A | 0.74
10 | A5G A13G A45G U49C U78A | 0.12
11 | A5G A13G A47G U58C | 0.52
12 | A5G A13G A56U U66C | 0.18
13 | A5G A13G C17U G24A A45U U54C | 0.05
14 | A5G A13G C23U A57G G61A U80A | 0.07
15 | A5G A13G C32U U41C U51G A57G | 0.11
16 | A5G A13G C40A A64G | 0.1
17 | A5G A13G C44G C62G U80A | 0.34
18 | A5G A13G G24A U43A U48C | 0.05
19 | A5G A13G G24A U43A U72A | 0.32
20 | A5G A13G G24C C29U A77G | 0.44
21 | A5G A13G G33U A57G U69C | 0.1
22 | A5G A13G U26A G33C A47U U48C U78C | 0.06
23 | A5G A13G U26A G36C | 0.63
24 | A5G A13G U26A U43C U78C | 0.05

Row | Variant | self-cleavage
25 | A5G A13G U26C A47G U74C | 0.04
26 | A5G A13G U31A C44A A64G | 0.06
27 | A5G A13G U41A | 0.32
28 | A5G A13G U43C A45U U54C | 0.57
29 | A5G A13G U48C A65G | 0.05
30 | A5G A13G U72C | 0.68
31 | A5G A13U A18G U25C A28U U49C | 0.34
32 | A5G A13U A20G A21G G33U C79A | 0
33 | A5G A13U A20G A47U | 0.06
34 | A5G A13U A20G G22A A56G | 0.15
35 | A5G A13U A20U | 0.19
36 | A5G A13U A20U A56U U58C | 0.09
37 | A5G A13U A21C A65G A77G | 0.21
38 | A5G A13U A21G | 0.6
39 | A5G A13U A21U A35G U48C A75G | 0.2
40 | A5G A13U A28G A35G | 0.82
41 | A5G A13U A35G U41G | 0.42
42 | A5G A13U A45G U60A U72C | 0.2
43 | A5G A13U A45U | 0.57
44 | A5G A13U C17A A28G U78C | 0.3
45 | A5G A13U G24A A35U U43A A56G | 0.38
46 | A5G A13U G24A A57G A65G | 0.09
47 | A5G A13U U25C A56U U60A C68A A77U | 0.05
48 | A5G A13U U26C A45G A57G U69C A75U | 0.18

Row | Variant | self-cleavage
49 | A5G A13U U31C | 0.65
50 | A5G A13U U41A U58A U66C U74A | 0.26
51 | A5G A13U U41A U72A | 0.66
52 | A5G A13U U41C U60A | 0.28
53 | A5G A13U U43G U66C U72C | 0.18
54 | A5G A13U U80A | 0.76
55 | A5G A15C U26C | 0.13
56 | A5G A15C U26C U51A | 0.16
57 | A5G A15C U26C U51A U78G | 0.34
58 | A5G A15C U31C C50U U69C | 0.34
59 | A5G A15C U41A | 0.3
60 | A5G A15C U41G G70A U78A | 0.03
61 | A5G A15C U54A | 0.49
62 | A5G A15C U60C | 0.05
63 | A5G A15C U60G A65G U72G | 0.15
64 | A5G A15G A18G U54G U80A | 0.7
65 | A5G A15G A18U A28G A45G U72C | 0
66 | A5G A15G A18U A45G U60A | 0.52
67 | A5G A15G A20G U26C A57U U58A U72C | 0.04
68 | A5G A15G A20G U48C | 0
69 | A5G A15G A20U | 0.69
70 | A5G A15G A28G A47U U60C | 0.16
71 | A5G A15G A35G A47G | 0.63
72 | A5G A15G A56G | 0.55

Row | Variant | self-cleavage
73 | A5G A15G A65G | 0.34
74 | A5G A15G C17G A20G A75U | 0.61
75 | A5G A15G C17G A20U U58C | 0.08
76 | A5G A15G C17U A56G | 0.54
77 | A5G A15G C37U U41A G63U | 0.31
78 | A5G A15G C38U U41C A47U A64U | 0.06
79 | A5G A15G C59U U78C | 0.33
80 | A5G A15G G22C A57U U69A | 0.21
81 | A5G A15G G24U A65G U78C | 0.22
82 | A5G A15G G30C C59G | 0.02
83 | A5G A15G G33A A35G C37A A56U U78C | 0.01
84 | A5G A15G G36C | 0.37
85 | A5G A15G U25A C38A | 0.15
86 | A5G A15G U25C A57U | 0.6
87 | A5G A15G U25C G33A G46A U51A A77G | 0.22
88 | A5G A15G U26C U41A A64U | 0.13
89 | A5G A15G U31A A47G U51A A65G | 0.13
90 | A5G A15G U31C | 0.58
91 | A5G A15G U41A U54G | 0.06
92 | A5G A15G U41C A56U | 0.12
93 | A5G A15G U41C A77G | 0.46
94 | A5G A15G U41C U48C G55A A64G | 0.1
95 | A5G A15G U49C U51A | 0.25
96 | A5G A15G U54C U69A U76C U78C | 0.13

Row | Variant | self-cleavage
97 | A5G A15G U69A | 0.41
98 | A5G A15G U72A | 0.42
99 | A5G A15G U78C | 0.61
100 | A5G A15U A18G A21G A47G | 0.36
101 | A5G A15U A18U A75C U80C | 0.44
102 | A5G A15U A18U U26C G30U G52A | 0.38
103 | A5G A15U A20G U69C | 0.1
104 | A5G A15U A20U U25C A45C G52U U66C | 0.06
105 | A5G A15U A21G A47G U67C | 0.25
106 | A5G A15U A21G A64G | 0.06
107 | A5G A15U A28C U31A U67C | 0.11
108 | A5G A15U A35U | 0.41
109 | A5G A15U A45U G53A | 0.32
110 | A5G A15U A75U | 0.62
111 | A5G A15U C23U U54C U69C U78C | 0.15
112 | A5G A15U C29A A45U U74C | 0.07
113 | A5G A15U C34G C62G | 0.07
114 | A5G A15U C39A U80C | 0.13
115 | A5G A15U G19C C32U C38U U69A | 0.07
116 | A5G A15U G24A U58C U78C | 0.33
117 | A5G A15U U41A A77G | 0.26
118 | A5G A15U U48C A64G U69A U78C | 0.17
119 | A5G A15U U49C | 0.5
120 | A5G A15U U58A | 0.14

Row | Variant | self-cleavage
121 | A5G A15U U72C | 0.43
122 | A5G A18C A20U A35G U41A | 0.47
123 | A5G A18C G30U | 0.09
124 | A5G A18C U26C U60C | 0
125 | A5G A18C U31C | 0.54
126 | A5G A18C U72C A75G U78A | 0.62
127 | A5G A18G A20G U26C G55U U69C | 0.47
128 | A5G A18G A21G C27A | 0.46
129 | A5G A18G A21G C29A | 0.5
130 | A5G A18G A21G C62A U66C | 0.11
131 | A5G A18G A28G U54C G55U | 0.38
132 | A5G A18G A35G A64C U80C | 0.33
133 | A5G A18G A35G U72C | 0.35
134 | A5G A18G A35U U51C A56G A77G | 0.08
135 | A5G A18G A47G A57G | 0.44
136 | A5G A18G A57G U72A U78A | 0.28
137 | A5G A18G A57U U58C A64C U78C | 0.1
138 | A5G A18G C23U U25C A64G | 0.22
139 | A5G A18G C50A U51C U69A | 0.32
140 | A5G A18G G24C U51A | 0.28
141 | A5G A18G G42A U43C G70U | 0.07
142 | A5G A18G U26A A28G A56G C62U U78C | 0.06
143 | A5G A18G U26C A47G | 0.6
144 | A5G A18G U41A U72G | 0.14

Row | Variant | self-cleavage
145 | A5G A18G U43C U48C U58C | 0.19
146 | A5G A18G U51A U54C A57G | 0.32
147 | A5G A18G U54A | 0.85
148 | A5G A18G U66A U72A | 0.29
149 | A5G A18G U66C | 0.24
150 | A5G A18G U66C U80G | 0.16
151 | A5G A18G U78C | 0.33
152 | A5G A18U A20G | 0.79
153 | A5G A18U A20G A57G | 0.39
154 | A5G A18U A20G U41C A57G | 0.3
155 | A5G A18U A28G A64G U69G U80C | 0.06
156 | A5G A18U A28G U31G U54C U72C U78C | 0.07
157 | A5G A18U A28G U58C | 0.09
158 | A5G A18U A28U U43C U76C | 0.1
159 | A5G A18U A45G U51C | 0.29
160 | A5G A18U C32A | 0.3
161 | A5G A18U C38U U49A A65G | 0.08
162 | A5G A18U G19U A28G C34U A45G | 0.05
163 | A5G A18U U26A C29G U31C U41C U54A | 0.03
164 | A5G A18U U26A U31C U49C U60C | 0.07
165 | A5G A18U U26C A64U U69C | 0.21
166 | A5G A18U U26C U41A U51A | 0.11
167 | A5G A18U U26C U51G A77U | 0.12
